Several values for one entry are separate records, joined by “and”; a condition that tells them apart may be missing. Identical values can stand only once.
T1: human neuropeptide Y2 receptor (human, UniProt P49146 1-381)
T1 sequence (looked up): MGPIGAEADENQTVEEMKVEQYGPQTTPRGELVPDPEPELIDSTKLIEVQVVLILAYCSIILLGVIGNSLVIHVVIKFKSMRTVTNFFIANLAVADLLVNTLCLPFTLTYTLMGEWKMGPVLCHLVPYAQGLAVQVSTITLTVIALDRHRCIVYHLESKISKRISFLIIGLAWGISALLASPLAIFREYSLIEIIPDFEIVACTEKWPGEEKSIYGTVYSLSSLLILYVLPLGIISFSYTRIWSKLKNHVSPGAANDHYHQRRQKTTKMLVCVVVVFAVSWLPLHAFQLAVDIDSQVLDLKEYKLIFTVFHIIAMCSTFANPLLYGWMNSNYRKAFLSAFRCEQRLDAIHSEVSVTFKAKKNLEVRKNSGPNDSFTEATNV

B1: GLP-1 fusion peptide coupled cyclic PYY peptide conjugate SEQ ID NO:225 (Fc fusion)
chain: HGEGTFTSDVSSYLEEQAAKEFIAWLVKGGGGGGGAGGGGAGGGGAA[human IgG4 Fc with S228P F234A L235A (EU numbers) not written out]APAPAPAPAPAPCP
peptide: GISPEAPGEKASPEELNRYYASLRHYLNCVTRQRY
modifications: [cyclo-(G2-COCH2-C30), K(AcBr)11, N-Me-R35]-PYY2-36; Br displaced on conjugation to the linker Cys; C-terminal amide; Cys of the second linker peptide thioether-linked to the Lys11 side chain of the cyclic PYY peptide
B2: GLP-1 fusion peptide GF1 (SEQ ID NO:113) (Fc fusion)
chain: B1 chain
B3: GLP-1 fusion peptide coupled cyclic PYY peptide conjugate SEQ ID NO:233 (Fc fusion)
chain: HGEGTFTSDVSSYLEEQAAKEFIAWLVKGGGGGGGAGGGGAGGGGAA[human IgG4 Fc with S228P F234A L235A (EU numbers) not written out]APAPEEPCA
peptide: B1 peptide
modifications: [cyclo-(G2-COCH2-C30), K(AcBr)11, N-Me-R35]-PYY2-36; Br displaced on conjugation to the linker Cys; C-terminal amide; Cys of the second linker peptide thioether-linked to the Lys11 side chain of the cyclic PYY peptide
B4: GLP-1 fusion peptide GF19 (SEQ ID NO:131) (Fc fusion)
chain: HGEGTFTSDVSSYLEEQAAKEFIAWLVKGGGGGGGAGGGGAGGGGAA[human IgG4 Fc with S228P F234A L235A (EU numbers) not written out]GGGAPAPAPEEEPCA
B5: GLP-1 fusion peptide coupled cyclic PYY peptide conjugate SEQ ID NO:251 (Fc fusion)
chain: B4 chain
peptide: B1 peptide
modifications: [cyclo-(G2-COCH2-C30), K(AcBr)11, N-Me-R35]-PYY2-36; Br displaced on conjugation to the linker Cys; C-terminal amide; Cys of the second linker peptide thioether-linked to the Lys11 side chain of the cyclic PYY peptide
B6: GLP-1 fusion peptide GF24 (SEQ ID NO:136) (Fc fusion)
chain: HGEGTFTSDVSSYLEEQAAKEFIAWLVKGGGGGGGAGGGGAGGGGAA[human IgG4 Fc with S228P F234A L235A (EU numbers) not written out]APAPAPAPAPAPCPEEP
B7: GLP-1 fusion peptide coupled cyclic PYY peptide conjugate SEQ ID NO:229 (Fc fusion)
chain: B6 chain
peptide: B1 peptide
modifications: [cyclo-(G2-COCH2-C30), K(AcBr)11, N-Me-R35]-PYY2-36; Br displaced on conjugation to the linker Cys; C-terminal amide; Cys of the second linker peptide thioether-linked to the Lys11 side chain of the cyclic PYY peptide
B8: GLP-1 fusion peptide GF63 (SEQ ID NO:175) (Fc fusion)
chain: HGEGTFTSDVSSYLEEQAAKEFIAWLVKGGGAPAPAPAPAPAPAPAPAPAPA[human IgG4 Fc with S228P F234A L235A (EU numbers) not written out]ASGSAPAPAPEEEPCA
B9: GLP-1 fusion peptide coupled cyclic PYY peptide conjugate SEQ ID NO:240 (Fc fusion)
chain: B8 chain
peptide: B1 peptide
modifications: [cyclo-(G2-COCH2-C30), K(AcBr)11, N-Me-R35]-PYY2-36; Br displaced on conjugation to the linker Cys; C-terminal amide; Cys of the second linker peptide thioether-linked to the Lys11 side chain of the cyclic PYY peptide
B10: GLP-1 fusion peptide GF8 (SEQ ID NO:120) (Fc fusion)
chain: HGEGTFTSDVSSYLEEQAAKEFIAWLVKGGGGGGGAGGGGAGGGGAA[human IgG4 Fc with S228P F234A L235A (EU numbers) not written out]GGGGAGGGGAGGGGACA
B11: GLP-1 fusion peptide coupled cyclic PYY peptide conjugate SEQ ID NO:252 (Fc fusion)
chain: B10 chain
peptide: B1 peptide
modifications: [cyclo-(G2-COCH2-C30), K(AcBr)11, N-Me-R35]-PYY2-36; Br displaced on conjugation to the linker Cys; C-terminal amide; Cys of the second linker peptide thioether-linked to the Lys11 side chain of the cyclic PYY peptide

The binders below were run against human GLP-1 receptor (human, UniProt P43220 24-463) (assay: cell-based or functional assay).
Sequence of UniProt P43220 (P43220 24-463): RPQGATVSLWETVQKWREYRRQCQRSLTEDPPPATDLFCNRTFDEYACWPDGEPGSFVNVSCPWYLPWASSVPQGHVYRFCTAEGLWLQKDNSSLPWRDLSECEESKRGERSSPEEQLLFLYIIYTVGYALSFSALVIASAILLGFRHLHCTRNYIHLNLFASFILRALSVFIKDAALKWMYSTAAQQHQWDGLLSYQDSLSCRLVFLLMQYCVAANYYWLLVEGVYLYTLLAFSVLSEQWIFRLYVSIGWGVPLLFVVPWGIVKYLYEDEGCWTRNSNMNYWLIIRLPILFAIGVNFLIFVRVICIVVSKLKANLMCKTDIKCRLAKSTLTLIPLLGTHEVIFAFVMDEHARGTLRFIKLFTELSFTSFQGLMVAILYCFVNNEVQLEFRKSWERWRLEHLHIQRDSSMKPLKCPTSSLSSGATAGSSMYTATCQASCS

Human GLP1R EC50	Binder
0.078 nM	B1
0.062 nM	B2
0.103 nM	B3
0.05 nM and 0.106 nM	B4
0.062 nM	B5
0.068 nM and 0.126 nM	B6
0.069 nM	B7
0.042 nM	B8
0.036 nM	B9
0.066 nM	B10
0.08 nM	B11

These binders were tested against T1, human neuropeptide Y2 receptor (assay: cell-based or functional assay).

Human Y2R EC50	Binder
0.009 nM	B1
0.01 nM	B3
0.015 nM	B5
0.014 nM	B7
0.007 nM	B9
0.009 nM	B11
